The numbers were not newly measured in patent US11045554B1 (National Technology & Engineering Solutions of Sandia, LLC, priority 2018, dated 2021), which cites them from elsewhere.

The conditions of this data set: mouse plasma, after 3 hours; cited from earlier work.

`CN1CCN(C)C(=Nc2ccc([N+](=O)[O-])cc2C(=O)Nc2ccccc2)C1` [ML336, 2-[(1,4-dimethylpiperazin-2-ylidene)amino]-5-nitro-N-phenylbenzamide]: the reduction of drug is given as 35%.
